From the supplement of paper PMC11383711
Some of the results follow. Binding of human antibodies (heavy:light variable regions, tested as scFv in one mRNA-display pool) to influenza hemagglutinin, with or without the stem antibody CR9114 bound first. Score = (mean enrichment − median) / interquartile range of that screen; higher = more enriched, 0 = typical non-binder. Active = above the paper's cut-off per screen: stems 28; unblocked H1 Solomon Islands 5, H1 Michigan 3, H3 5, H5 19, H7 2.85, both B 5; blocked 9, 7, H5 10, H7 10, B Phuket 10, B Lee 11.5. Scores are scaled within each screen and are no affinities; replicates correlate at about 0.6 to 0.9, and antibodies rare in the pool are noisier.

B1: 56.b.16 (protein)
chain 1: EVQLVESGGGLVQPGGSLRLSCSASGFNVSDYAMHWVRQAPGKGLEYVSLISSNGFSTFYTDSVKGRFIISRDNSKNTLYLQMSSLRHDDTAVYYCVRAESHDFWSGYYWGHGTLVTVSS
chain 2: DVVMTPGSVSLPVTLGQPASISCRSSQSLVYSDGNTYLSWFQQRPGQSPRRLIYKVSNRDSGVPDRFSGSGSGTDFTLKIRGMEAEDVGVYYCLQTTHWPPTFGQGTKVEIK
B2: K77-2F01 (protein)
chain 1: QVQLQESGPGLVKPSGTLSLTCAVSGGSISSSHWWSWVRQPPGKGLEWIGEIHHSGTSNHNPSVESRVNISVDKSKNHFSLELTSVTAADTAVYFCARVSTVAGHRSSYCLDSWGQGTLVAVSS
chain 2: QSALTQPASVSGSPGQSITISCTGTSSDVGGYDYVSWYQQHPGKAPKVIIYDVSYRPSGVSNRFSGSKSGNMASLTISGLQAEDEADYYCSSYTTTFTLLFGGGTKVT
B3: R95-1E01 (protein)
chain 1: EVQLVESGGGLVQPGRSLRLSCAGDGFSFDDHAMHWVRQAPGKGLEWVSGISWNSGSIGYVDSVKGRFTISRDNAKNSLYLQMNTLRPEDTALYYCVRDMNWNSQIGGYYFDYWGQGALVTVSS
chain 2: DIQMTQSPSSLSASVGDRVTITCRASHNITNFLNWYQQKPGKAPKLLIYGTSSLQSGVPSRFSGSGSGTDFTLAISSLHPEDFATYYCQQSYSIHPYTFGQGTKLDIK
B4: 56.f.01 (protein)
chain 1: QVHLVQSGAEVKKPGASVKVSCKVSGHTLSELSIHWVRQAPGNVLEWMGGFDPEDGESISAQMFQGRVIMTEDSSKDTAYMELSSLTSEDTAVYYCATGSYCSATYCSFDYWGQGTLVTVSS
chain 2: AIRMTQSPVSLSASVGDRVTITCWASQGISNYLVWIQQKPAKAPRLFIYYASSLQSGVPSRFSGSGSGTDYTLTIISLQPEDFATYYCQQFYGSLPLTFGGGTKVEIK
B5: K77-2A04 (protein)
chain 1: QVHLQESGPGLVKPSGTLSLTCDVSGVSIRSPNWWSWVRQSPGKGLEWIGEIYHSADTNYNPSLKSRVTISLDKSKNQFSLKLISVTAADTAVYYCGRDRYDSSGFYRGYYYGIDVWGQGTTVTVS
chain 2: DVVMTQSPLSLPVTLGQAASISCRSGQSLVHTDGNTYLNWFQQRPGQSPRRLIYQVSNRDSGVPDRFSGSGSGTDFTLKISRVEAEDVAVYYCMQGTHWPPTFGQGTKVEVK
B6: 039-10-4B05 (protein)
chain 1: QVQLVQSGAEVKKPGASVKVSCETSGYMFTAYATHWVRQAPGQGLEWMGWVNGLNGNTKYSEKFQGRITITRDTSATTAYMELSSLRSDDTAVYYCARGNIANWFDPWGQGTLVTVSS
chain 2: DIQMTQSPSSLSASVGDRVTITCRASQDIRKSLAWYQQKPGKAPKVLVFATSRLEDGVPSRFSGSGSGTEYTLTISSLQPEDFATYHCQQYQSTPYTFGQGTKVEIK

These binders were tested against Influenza A H1N1 A/Michigan/45/2015 hemagglutinin ectodomain (assay: mRNA display binding score; higher = more enriched on the antigen). Conditions: antigen blocked with: 2 µM CR9114 IgG.
Method: (§1)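 A pool of natively paired antibodies, displayed as scFv on mRNA, was selected once on antigen-coated beads and sequenced before and after; two replicates.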

Row | Binder | mRNA display binding score
1 | B1 | inactive: 3.2
2 | B2 | inactive: -0.469
3 | B3 | inactive: -0.17
4 | B4 | inactive: -0.319
5 | B5 | inactive: 0.767
6 | B6 | inactive: -0.194

Same assay, conditions: antigen blocked with: nothing

Row | Binder | mRNA display binding score
7 | B1 | inactive: 0.49
8 | B2 | inactive: -0.731
9 | B3 | inactive: -0.339
10 | B4 | inactive: -0.557
11 | B5 | inactive: 0.965
12 | B6 | inactive: -0.252

Each binder was assayed against Influenza A H1N1 A/Solomon Islands/3/2006 hemagglutinin ectodomain in the same assay as above. Conditions: antigen blocked with: 2 µM CR9114 IgG.
Method: as §1

Row | Binder | mRNA display binding score
13 | B1 | inactive: -0.549
14 | B2 | inactive: -0.577
15 | B3 | inactive: -0.599
16 | B4 | inactive: -0.584
17 | B5 | inactive: 0.451
18 | B6 | inactive: -0.681

Same assay, conditions: antigen blocked with: nothing

Row | Binder | mRNA display binding score
19 | B1 | inactive: 0.947
20 | B2 | inactive: -0.189
21 | B3 | inactive: 1.05
22 | B4 | inactive: -0.431
23 | B5 | inactive: 0.112
24 | B6 | inactive: -0.258

These binders were tested against Influenza A H3N2 A/Singapore/INFIMH-16-0019/2016 hemagglutinin ectodomain in the same assay as above. Conditions: antigen blocked with: nothing.
Method: as §1

Row | Binder | mRNA display binding score
25 | B1 | inactive: 0.335
26 | B2 | inactive: -0.339
27 | B3 | inactive: -0.375
28 | B4 | inactive: -0.0358
29 | B5 | inactive: 1.18
30 | B6 | inactive: -0.523

What follows are binders tested against Influenza A H5N1 A/Qinghai/1A/2005 hemagglutinin ectodomain in the same assay as above. Conditions: antigen blocked with: 2 µM CR9114 IgG.
Method: as §1

Row | Binder | mRNA display binding score
31 | B1 | inactive: -0.355
32 | B2 | inactive: -0.802
33 | B3 | inactive: 0.0586
34 | B4 | inactive: -0.807
35 | B5 | inactive: 4.4
36 | B6 | inactive: -0.265

Same assay, conditions: antigen blocked with: nothing

Row | Binder | mRNA display binding score
37 | B1 | inactive: -0.479
38 | B2 | inactive: -0.58
39 | B3 | inactive: -0.422
40 | B4 | inactive: -0.639
41 | B5 | inactive: 18.9
42 | B6 | inactive: -0.335

What follows are binders tested against Influenza A H7N9 A/Shanghai/2/2013 hemagglutinin ectodomain in the same assay as above. Conditions: antigen blocked with: 2 µM CR9114 IgG.
Method: as §1

Row | Binder | mRNA display binding score
43 | B1 | inactive: 0.188
44 | B2 | inactive: -0.432
45 | B3 | inactive: -0.488
46 | B4 | inactive: -0.916
47 | B5 | inactive: 0.723
48 | B6 | inactive: -0.163

Same assay, conditions: antigen blocked with: nothing

Row | Binder | mRNA display binding score
49 | B1 | inactive: -0.518
50 | B2 | inactive: -0.625
51 | B3 | inactive: -0.622
52 | B4 | inactive: -0.551
53 | B5 | inactive: 0.614
54 | B6 | inactive: -0.444

These binders were tested against Influenza B/Lee/1940 hemagglutinin ectodomain in the same assay as above. Conditions: antigen blocked with: 2 µM CR9114 IgG.
Method: as §1

Row | Binder | mRNA display binding score
55 | B1 | inactive: -0.195
56 | B2 | inactive: 0.416
57 | B3 | inactive: 0.555
58 | B4 | inactive: 0.236
59 | B5 | inactive: 0.454
60 | B6 | inactive: 0.287

Same assay, conditions: antigen blocked with: nothing

Row | Binder | mRNA display binding score
61 | B1 | inactive: -0.348
62 | B2 | inactive: -0.168
63 | B3 | inactive: 0.112
64 | B4 | inactive: -0.433
65 | B5 | active: 154
66 | B6 | inactive: -0.407

What follows are binders tested against Influenza B/Phuket/3073/2013 hemagglutinin ectodomain in the same assay as above. Conditions: antigen blocked with: 2 µM CR9114 IgG.
Method: as §1

Row | Binder | mRNA display binding score
67 | B1 | inactive: 0.209
68 | B2 | inactive: -0.31
69 | B3 | inactive: -0.36
70 | B4 | inactive: -0.607
71 | B5 | active: 12.5
72 | B6 | inactive: -0.445

Same assay, conditions: antigen blocked with: nothing

Row | Binder | mRNA display binding score
73 | B1 | inactive: 0.573
74 | B2 | inactive: -0.147
75 | B3 | inactive: -0.00151
76 | B4 | inactive: -0.406
77 | B5 | active: 107
78 | B6 | inactive: 0.00109
